Measurements published in publication PMC4336329 (PLoS ONE, 2015).
In all, about 310,000 compounds went through this assay and about 14,000 (4.5%) showed an effect of 50% or more. The effect is printed as a negative number. The list shows a part of the results.

What follows are compounds tested against human ether-à-go-go-related gene (hERG) potassium channel (human, UniProt Q12809) (assay: primary screen, population patch clamp on CHO cells stably expressing hERG).
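Also: peak tail current of the secondary pulse compared with the same well before compound.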

Chain of human ether-à-go-go-related gene (hERG) potassium channel (Q12809 whole entry, looked up): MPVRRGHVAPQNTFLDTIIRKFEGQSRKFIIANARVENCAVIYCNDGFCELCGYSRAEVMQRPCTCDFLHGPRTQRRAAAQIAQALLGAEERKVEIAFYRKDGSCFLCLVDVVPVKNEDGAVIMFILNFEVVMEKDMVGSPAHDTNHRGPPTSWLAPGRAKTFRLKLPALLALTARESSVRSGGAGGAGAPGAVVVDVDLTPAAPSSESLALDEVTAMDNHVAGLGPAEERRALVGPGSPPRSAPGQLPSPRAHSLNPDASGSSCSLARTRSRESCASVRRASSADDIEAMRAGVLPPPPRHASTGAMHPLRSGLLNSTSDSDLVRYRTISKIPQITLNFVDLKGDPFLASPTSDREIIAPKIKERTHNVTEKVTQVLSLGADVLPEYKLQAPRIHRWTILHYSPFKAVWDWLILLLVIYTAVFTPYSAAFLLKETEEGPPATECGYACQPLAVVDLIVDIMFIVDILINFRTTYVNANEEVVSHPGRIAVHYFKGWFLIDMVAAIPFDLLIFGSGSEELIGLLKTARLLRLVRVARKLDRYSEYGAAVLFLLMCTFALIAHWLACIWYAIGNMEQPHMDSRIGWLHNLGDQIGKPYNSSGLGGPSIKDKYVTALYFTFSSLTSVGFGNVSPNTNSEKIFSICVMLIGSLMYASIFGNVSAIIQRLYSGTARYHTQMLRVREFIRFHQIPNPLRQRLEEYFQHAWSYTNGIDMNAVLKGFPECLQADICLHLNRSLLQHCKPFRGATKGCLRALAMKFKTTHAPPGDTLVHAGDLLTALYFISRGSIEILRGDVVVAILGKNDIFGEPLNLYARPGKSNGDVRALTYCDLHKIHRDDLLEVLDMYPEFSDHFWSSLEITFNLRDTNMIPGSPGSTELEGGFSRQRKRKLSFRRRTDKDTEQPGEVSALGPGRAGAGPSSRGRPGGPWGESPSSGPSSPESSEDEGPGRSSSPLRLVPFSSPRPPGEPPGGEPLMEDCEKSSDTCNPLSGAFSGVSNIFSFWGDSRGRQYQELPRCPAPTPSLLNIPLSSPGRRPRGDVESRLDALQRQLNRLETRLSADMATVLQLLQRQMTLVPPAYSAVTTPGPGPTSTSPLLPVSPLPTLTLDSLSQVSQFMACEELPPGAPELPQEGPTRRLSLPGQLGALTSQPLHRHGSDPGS

Compared with `Cc1ccc(Nc2[nH]c(=O)c3ccccc3c2C(=O)c2ccccc2)cc1`, `Cc1ccc(Cc2nnc(SCC(=O)Nc3ccccc3)[nH]c2=O)cc1` is lower in “hERG current change (%, negative = inhibition) at 10uM” value: 13% for the first, -23.3% for the second.

Going from `O=S(=O)(c1ccc(Cl)c(C(F)(F)F)c1)N1CCN(c2ccccn2)CC1` to `CSc1cccc(NC(=O)COC(=O)C2CCN(S(=O)(=O)c3ccccc3)CC2)c1`, the “hERG current change (%, negative = inhibition) at 10uM” value rises from -5.59% to 4.09%.

Compared with `CCN(CC)S(=O)(=O)c1ccc(NC(=O)c2ccc(NS(C)(=O)=O)cc2)cc1`, `CC(C)Oc1ccc(C(=O)Nc2ccc(Cl)c(S(=O)(=O)Nc3ccc(Cl)cc3)c2)cc1` is higher in “hERG current change (%, negative = inhibition) at 10uM” value: 0.441% for the first, 2.46% for the second.

Going from `COc1ccc(C(=O)Nc2nc3cc4c(cc3s2)OCO4)c(OC)c1` to `COc1ccc(C(=O)Nc2cc(Cl)ccc2-n2cncn2)c(OC)c1OC`, the “hERG current change (%, negative = inhibition) at 10uM” value falls from 6.04% to -14.4%.

Going from `CCN(CC)c1ccc(-c2c(C#N)c(N)nc(OC)c2C#N)cc1` to `CCN(CC)c1ccc(/C=N/NC(=O)c2nnn(-c3nonc3N)c2-c2ccc(C)cc2)cc1`, the “hERG current change (%, negative = inhibition) at 10uM” value rises from 0.548% to 7.07%.

First: CCCC(=O)Nc1c2c(nn1-c1ccc(C)cc1)CS(=O)(=O)C2
Second: CCOc1cccc(N2CCN(CCNC(=O)Nc3ccc(C)cc3)CC2)c1C
The “hERG current change (%, negative = inhibition) at 10uM” value of the first is higher: 3.46% for the first, -57% for the second.

First: Cc1cc(N2CCOCC2)nc2ccc(NC(=O)C3CCC(C)CC3)cc12 (stereo not shown)
Second: CCN1CCN(Cc2ccc(NC(=O)c3ccc(C)c(NC(=O)c4ccc5n[nH]nc5c4)c3)cc2C(F)(F)F)CC1
The “hERG current change (%, negative = inhibition) at 10uM” value of the first is lower: -27.8% for the first, -1.8% for the second.

First: CCOC(=O)c1c(C)[nH]c(C)c1C(=O)CSc1nc(N)cc(=O)[nH]1
Second: CCOC(=O)c1cnc(COc2ccccc2Cl)[nH]c1=O
The “hERG current change (%, negative = inhibition) at 10uM” value of the first is lower: 0.173% for the first, 16% for the second.

Compared with `Cn1c(=O)c2c(-c3ccccc3)n(-c3ccccc3O)cc2n(C)c1=O`, `Cn1c(C(=O)NCCCN2CCN(c3ccccc3F)CC2)cc2c(=O)n(C)c3ccccc3c21` is lower in “hERG current change (%, negative = inhibition) at 10uM” value: 1.25% for the first, -11.7% for the second.

Compared with `COC(=O)c1ccc(-n2c(C)ccc2-c2ccccc2)cc1`, `Cc1noc(C)c1CSc1nc2ccccc2c(=O)n1-c1ccc(Cl)cc1` is lower in “hERG current change (%, negative = inhibition) at 10uM” value: 2.49% for the first, 1.99% for the second.

First: COc1cc(OC)cc(C(=O)NNC(=O)c2ccc(S(=O)(=O)N3CC(C)OC(C)C3)cc2)c1 (stereo not shown)
Second: CCCS(=O)(=O)N1CCCC(C(=O)NCCc2ccc(OC)c(OC)c2)C1 (stereo not shown)
The “hERG current change (%, negative = inhibition) at 10uM” value of the first is higher: 12.6% for the first, 1.22% for the second.

Going from `COc1ccc(Br)cc1-c1noc(-c2ccccc2F)n1` to `COc1cc(C2NC(=O)NC(c3ccccc3)=C2C(C)=O)ccc1OCC#N` (stereo not shown), the “hERG current change (%, negative = inhibition) at 10uM” value falls from 25.6% to -8.43%.

Going from `CC(C)C[C@H]1CN=C(Nc2ccccc2)N1CC1CCC(C(C)(C)C)CC1` (stereo partly shown) to `CC(C)C(NC(=O)OCc1ccccc1)C(=O)OCC(=O)NC1CC1` (stereo not shown), the “hERG current change (%, negative = inhibition) at 10uM” value rises from -78.3% to 9.3%.

Going from `C=CCNC(=O)c1onc(CSc2ccccc2)c1C(=O)NCC=C` to `COc1cccc(C(=O)NCCSCc2ccccc2Cl)c1`, the “hERG current change (%, negative = inhibition) at 10uM” value falls from -19.5% to -53.2%.

Compared with `O=C(NCCN1CCN(C(=O)c2cc3ccccc3oc2=O)CC1)c1cc2ccccc2oc1=O`, `O=C(C1COc2ccccc2O1)N1CCN(c2ccccc2)CC1` (stereo not shown) is lower in “hERG current change (%, negative = inhibition) at 10uM” value: -15.9% for the first, -16.9% for the second.

Going from `CCc1[nH]nc2c1C1(CCN(C(=O)c3ccccc3)CC1)C(C#N)=C(N)O2` to `Cc1cccc(NC(=O)CSc2ncnc3c2oc2ccccc23)c1`, the “hERG current change (%, negative = inhibition) at 10uM” value rises from -30.7% to 1.13%.

Going from `COc1cc(C(CCN2CCCCC2)c2c(OC)cc(OC)c3c(C)cc(=O)oc23)cc(OC)c1OC` (stereo not shown) to `Cc1cc(NC(=O)CSc2nnc3c(C)cc4c(C)ccc(C)c4n23)no1`, the “hERG current change (%, negative = inhibition) at 10uM” value rises from -99.6% to -5.13%.

Compared with `CC(=O)Nc1nc(NC(=O)/C=C/c2ccccc2)n(-c2ccccc2)n1`, `CCNC(=O)CN(c1ccccc1)S(=O)(=O)c1ccc(Cl)cc1` is higher in “hERG current change (%, negative = inhibition) at 10uM” value: -1.34% for the first, 2.13% for the second.

First: C[C@H](O)[C@H](O)[C@H]1CNc2nc(N)[nH]c(=O)c2N1.Cl
Second: O=C(O)CC1C(=O)NCCN1Cc1ccc(F)c(F)c1 (stereo not shown)
The “hERG current change (%, negative = inhibition) at 10uM” value of the first is lower: -3.82% for the first, 29.2% for the second.

First: CCOc1ccc(Cc2nnc(N)s2)cc1OCC
Second: Cn1ccnc1SCC(=O)Nc1nc2ccccc2s1
The “hERG current change (%, negative = inhibition) at 10uM” value of the first is higher: -6.21% for the first, -25.1% for the second.

Compared with `Cc1ccc(CN(Cc2ccco2)C(=S)NCC(=O)O)cc1`, `COc1ccc(N(CC(=O)Nc2cc(C)ccc2C)S(=O)(=O)c2c(C)noc2C)cc1` is higher in “hERG current change (%, negative = inhibition) at 10uM” value: 9% for the first, 18.9% for the second.

`C[n+]1cccc(C(=O)[O-])c1` was tested, and the “hERG current change (%, negative = inhibition) at 10uM” value was 19.6%.
